Assay results taken from the RNAGym collection of RNA variant scans (doi:10.1073/pnas.2313332121).
Variants at the background level are over-represented here.

B1: TPR 5TU (parent)
chain: GGAUCUUCUCGAUCUAACAAAAAAGACAAAUCUGCCACAAAGCUUGAGAGCAUCUUCGGAUGCAGAGGCGGCAGCCUUCGGUGGCGCGAUAGCGCCAACGUUCUCAACUAUGACACGCAAAACGCGUGCUCCGUUGAAUGGAGUUUAUCAUG

Variants of: B1
Assay: polymerase ribozyme fitness, log enrichment relative to wild type (log ratio); higher = more active; in vitro selection for triplet polymerase activity
Outline: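 In triplicate, a single round of in vitro selection was run on each mutant library, PCR-built and transcribed, covering one subunit of a heterodimeric triplet polymerase ribozyme. Frozen incubation at −7 °C followed annealing with a biotinylated primer, partner subunit and triplets, and extended constructs were then gel-excised, streptavidin-captured and taken through RT-PCR. Fitness is the logarithm of genotype enrichment over wild-type enrichment, from inverse-variance-weighted replicate averages of Illumina-sequenced inputs and outputs. […] only genotypes with ≥10 input reads and ≥1 read per output were kept.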

| Variant | polymerase ribozyme fitness (log ratio) |
| --- | --- |
| A12G A29C U55G A64C G70C C118U A138U | ≤ -4.2 |
| C14G G86C A147G | ≤ -4.2 |
| U13G U44A G67C U82G C95A C96U C103A G141A | ≤ -4.2 |
| U13A A41G C87A | ≤ -4.2 |
| C14U A39U A47C A91U C95U C103A U104G A115U | ≤ -4.2 |
| A12C A26U G42U A52U U53A U56A C57A A110G C114U G124U U148A | ≤ -4.2 |
| A12C A17G C87A A91U C116A | ≤ -4.2 |
| U13A C54G U101G G117A | ≤ -4.2 |
| C14G A39C C75G C85A G133A | ≤ -4.2 |
| C14A G84A C118A C125A A137U C149U | ≤ -4.2 |
| U13C G88A G94C C99U | ≤ -4.2 |
| U13A G58A C63U A64U U82G C85G C116U | ≤ -4.2 |
| U13C C93U C96G C149U | ≤ -4.2 |
| C14U A17U A24G U53A G74U G80C A89U A91G G94U U109A A137U | ≤ -4.2 |
| A12U A49C C51U C85A G140A | ≤ -4.2 |
| A12U U55G C99A C131A | ≤ -4.2 |
| C14G C69G A91G A137G | ≤ -4.2 |
| U13G U148G | ≤ -4.2 |
| A12C C57U U77C G83U | ≤ -4.2 |
| A12U A41C G42C C54U G59C G62C G124C U148C | ≤ -4.2 |
| C14A C63U G124A G126U A138G G140A | ≤ -4.2 |

| Variant | polymerase ribozyme fitness (log ratio) |
| --- | --- |
| A12G A28C U53C A73U U109G | ≤ -4.2 |
| A12U A39C U55G C57G C75U G81A A115U C132G G136U U146G | ≤ -4.2 |
| A12C A17U C27G G62U A97C | ≤ -4.2 |
| U13G G70U C93U C103G C131U A137G U146A | ≤ -4.2 |
| A12G C43G U53A C75A G92C A98G A120U C131U G133A | ≤ -4.2 |
| C14G C32A C85A C93U C125G | ≤ -4.2 |
| A12G A40G U82C C87G C93U | ≤ -4.2 |
| A12G C75G C87A G92C C123G A137C | ≤ -4.2 |
| C14U A24G C51A U55A C85U G86A C118G G141A | ≤ -4.2 |
| A12U C35U C36G C85U C93A C95G C123U | ≤ -4.2 |
| A12C A20C A30C C57G G67A C93G C116G | ≤ -4.2 |
| C14G A24C A60G A66C | ≤ -4.2 |
| U13C C43U C76G U104C A122G | ≤ -4.2 |
| A12C G25C A91G A150C | ≤ -4.2 |
| A12G A21C A39C U44A G71A C76A U102G A115G C116U | ≤ -4.2 |
| C14G G86A U101C C108U C125U | ≤ -4.2 |
| U13A U53C C79U C87A | ≤ -4.2 |
| C14G G83U A97U U144A A150U | ≤ -4.2 |
| A12C C14G U55A A66G U90G C96A A122C | ≤ -4.2 |
| C14G C87U A91U C99U | ≤ -4.2 |
| C14A A19G A39C U90G C95G U144A | ≤ -4.2 |

| Variant | polymerase ribozyme fitness (log ratio) |
| --- | --- |
| C14G C35A A91U A138U | ≤ -4.2 |
| A12U U53G A66G A91G A98U C105G A142C | ≤ -4.2 |
| C14G C18U A21U A24U G50C C72U C118G A122U | ≤ -4.2 |
| C14G A30C G50A G136U | ≤ -4.2 |
| A12G G62C G74C G141U C149G | ≤ -4.2 |
| C14G A49U A52G G58C | ≤ -4.2 |
| C14A C18U G46A G67A A73G C96G G124C | ≤ -4.2 |
| C14U A28C G48C G71C G86U | ≤ -4.2 |
| A12C C79U C85U A142U | ≤ -4.2 |
| A12U U13A A21U A23G U44A G50U C87G A91G | ≤ -4.2 |
| C14G A28C | ≤ -4.2 |
| U13G G46U C87U C105U A142G | ≤ -4.2 |
| C14G A26U A39U A52G C63U A113U G141U | ≤ -4.2 |
| A12U A16G C43G G92A C108G U130G | ≤ -4.2 |
| A12G C14A C51A C93G C118U C129A A137U | ≤ -4.2 |
| U13A A20C A26U A29U A47C C85A A98U U127C | ≤ -4.2 |
| A12U A37G G46A G92A A113U G141U | ≤ -4.2 |
| A12G A17C A52U A66C G94A | ≤ -4.2 |
| A12U A16G A91U C95U G128U | ≤ -4.2 |
| C14A C72A G140U | ≤ -4.2 |
| C14G G81U A97U A106U | ≤ -4.2 |

| Variant | polymerase ribozyme fitness (log ratio) |
| --- | --- |
| U13G U33G G88C | ≤ -4.2 |
| C14G U61A G65U C72G | ≤ -4.2 |
| A12C G46U A49C U53A A73G C79A A91G G92C C93G G94C C105U | ≤ -4.2 |
| A12U G25A C87U C103G G124C | ≤ -4.2 |
| A12G A28C G34A G67C C95G C125G G128U | ≤ -4.2 |
| C14A G71A C123U G126A | ≤ -4.2 |
| A12U G42U C51A G88A C131A | ≤ -4.2 |
| A12U A19U A30C C32A C57A A91G U109A U144G | ≤ -4.2 |
| U13C A20C A47U C118G A142C | ≤ -4.2 |
| A12U C36A C63A C87A A107U C129U G136A | ≤ -4.2 |
| A12C A28U U45A U82G | ≤ -4.2 |
| A12C G71A C85U C96A A107G C118A | ≤ -4.2 |
| C14U A19G C27U A28G U31G C75A C99G G143A | ≤ -4.2 |
| C14U A19U A24U C32U G68U C72G G84A C132G U146A | ≤ -4.2 |
| A12U U33G A49C C87U A107G G117A U127A | ≤ -4.2 |
| A12U C27U G59A C79U | ≤ -4.2 |
| U13C A20U A41U A91G C96A C129G U148A | ≤ -4.2 |
| A12C C38U G58A U77A C96U | ≤ -4.2 |
| A12G C51U A66U C93U A98U G124A | ≤ -4.2 |
| U13C A16G C36A A37C C57A G67A C72U U102C | ≤ -4.2 |
